No constants are given. Whether binding was seen depends on the method and setting. Binding seen in cells or lysates may run through a third protein. Some entries that bind do so weakly or less than the wild type.
Experiments:
[1] = target: FLAG-FAM84B (pCMV-FLAG-FAM84B) (UniProt Q96KN1); assay: co-IP; exogenous (transfected) FLAG-FAM84B with HA-tagged NPM1 full length or deletion mutants; 1 mg lysate protein with antibody and Protein A/G plus-agarose overnight at 4 °C; IP anti-FLAG, blot anti-HA; anti-IgG as negative control
[2] = target: FAM84B of the co-IP with CDKN2A (Fig. 6A) (UniProt Q96KN1); assay: co-IP; CDKN2A with FAM84B and with NPM1 in cells; cell line, antibodies of the IP and whether endogenous or transfected not stated
[3] = target: NPM1 of the co-IP with CDKN2A (Fig. 6B) (UniProt P06748); assay: as above
[4] = target: GST-FAM84B-FL (pGEX-5X-1) (UniProt Q96KN1); assay: pull-down; 50 µg purified GST fusion protein immobilised on 20 µl GSH-sepharose, PBS-T binding buffer (PBS, pH 7.4, 1% Tween 20); incubated overnight at 4 °C with 5 µg NPM1 product (in vitro translation; pCMV-NPM1-HA transfected, 293 T cells); blots anti-GST, anti-HA; only the target purified
[5] = target: FAM84B, endogenous (human (endogenous in the paper's cell lines; line not stated)) (UniProt Q96KN1); assay: co-IP; endogenous proteins; 1 mg lysate protein with antibody and Protein A/G plus-agarose overnight at 4 °C; IP anti-FAM84B, blot anti-NPM1; anti-IgG as negative control

Amino acid sequences for entries named in this document (tags omitted). A change or cut given only in a name is not applied to a line headed by its entry.
UniProt Q96KN1: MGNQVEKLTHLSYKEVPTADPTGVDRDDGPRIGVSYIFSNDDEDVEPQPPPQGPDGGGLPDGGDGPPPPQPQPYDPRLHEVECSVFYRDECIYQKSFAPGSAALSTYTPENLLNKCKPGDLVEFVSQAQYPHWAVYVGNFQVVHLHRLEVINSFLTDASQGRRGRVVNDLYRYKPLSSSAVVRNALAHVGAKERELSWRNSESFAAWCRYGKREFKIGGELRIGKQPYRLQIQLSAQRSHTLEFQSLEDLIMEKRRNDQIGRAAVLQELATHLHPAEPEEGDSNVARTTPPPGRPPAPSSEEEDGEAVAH
UniProt P06748: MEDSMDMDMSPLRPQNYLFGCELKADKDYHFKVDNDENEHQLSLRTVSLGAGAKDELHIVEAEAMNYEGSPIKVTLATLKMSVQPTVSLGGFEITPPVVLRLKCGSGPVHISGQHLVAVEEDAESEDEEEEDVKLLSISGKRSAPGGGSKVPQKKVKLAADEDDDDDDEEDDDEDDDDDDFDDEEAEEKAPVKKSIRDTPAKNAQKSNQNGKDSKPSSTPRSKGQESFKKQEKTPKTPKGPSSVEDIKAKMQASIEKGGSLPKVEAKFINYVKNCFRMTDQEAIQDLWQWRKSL
UniProt P42771: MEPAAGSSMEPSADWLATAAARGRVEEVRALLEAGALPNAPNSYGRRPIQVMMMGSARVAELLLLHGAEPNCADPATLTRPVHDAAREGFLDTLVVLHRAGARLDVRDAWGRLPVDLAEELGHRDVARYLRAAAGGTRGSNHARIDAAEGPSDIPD

| Substance | binding [1] | further results |
| --- | --- | --- |
| HA-tagged NPM1-1-117aa (from UniProt P06748 1-117) (domain or fragment) | no binding |  |
| HA-tagged NPM1-118-294aa (from UniProt P06748 118-294) (domain or fragment) | binds |  |
| CDKN2A (from UniProt P42771 1-156) |  | binding [2]: binds; binding [3]: binds |
| NPM1-HA (pCMV-NPM1-HA) of the GST pull-down (from UniProt P06748 1-294) |  | binding [4]: binds |
| NPM1, endogenous (from UniProt P06748 1-294) |  | binding [5]: binds |
| HA-tagged NPM1-1-188aa (from UniProt P06748 1-188) (domain or fragment) | no binding |  |

Now from value to substance, other results behind:

| binding [1] | Substance | further results |
| --- | --- | --- |
| binds | HA-tagged NPM1 full length (NPM1-FL) (from UniProt P06748 1-294) |  |
| no binding | HA-tagged NPM1-118-188aa (from UniProt P06748 118-188) (domain or fragment) |  |
